Measurements as given in PMC7819943, “Rice protein-binding microarrays: a tool to detect cis-acting elements near promoter regions in rice”.
Some of the results follow.

Target: T1, OsWOX13 (Oryza sativa, UniProt Q5QMM3 1-267)
T1 sequence: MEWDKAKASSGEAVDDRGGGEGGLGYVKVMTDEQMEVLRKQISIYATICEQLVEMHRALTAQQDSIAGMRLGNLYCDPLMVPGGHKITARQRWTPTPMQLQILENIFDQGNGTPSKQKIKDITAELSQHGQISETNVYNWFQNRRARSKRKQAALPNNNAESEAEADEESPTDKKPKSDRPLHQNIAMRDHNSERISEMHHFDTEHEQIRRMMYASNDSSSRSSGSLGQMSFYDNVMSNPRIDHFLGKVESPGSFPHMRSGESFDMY
Experiment: protein-binding microarray (RPBM); PBS, 2% BSA, 51.3 ng/ul salmon testes DNA, 50 uM zinc acetate, 200 nM TF, 25 C, 1 h; high values mean tight binding
Settings: protein: recombinant; tags: N-terminal polyhistidine and DsRed monomer fusion (pET32a); label: CyDye5-dUTP incorporated in the synthesized complementary strand; 3' TTTTT single-stranded linker to array surface; dsDNA, one strand shown
Outline: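 An Axon 4000B scanner gave the binding signal as per-feature fluorescence intensity in arbitrary units. This followed washing of a custom Agilent array that had been incubated for 1 h at 25 °C with 200 nM protein in PBS, 2% BSA, salmon testes DNA and 50 µM zinc acetate. The proteins were transcription factors fused at the N-terminus to polyhistidine and DsRed, expressed in E. coli BL21-CodonPlus and purified on Ni–NTA.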

How did the binding signal turn out when “TAATTAATCTGTTATTAGCAAATATTTACTGTAGCACCACCGGAGTCACCTAGTGCAG” was run?
Its binding signal is 3560 fluorescence intensity (a.u.).

With “CATCAGATATTTAACACTAATTAGAAATATTAAACATAGTCGGAGTCACCTAGTGCAG” as the sequence, how does the binding signal read?
The binding signal was 9680 fluorescence intensity (a.u.).

“CATATATGATTAGCGAAGGCTTGGAGTGTGAATCAAACACCGGAGTCACCTAGTGCAG” was tested. Which binding signal did it give?
The binding signal was 20900 fluorescence intensity (a.u.).

For “GTAACAGATTACATGAGGATTATGCGTCTGCATAGGTGGACGGAGTCACCTAGTGCAG”, which binding signal is on record?
The binding signal was 9250 fluorescence intensity (a.u.).

For “ACTCAATTTACAGACTTTGATTTGCTTGCTGAATTCCTCTCGGAGTCACCTAGTGCAG”, which binding signal is on record?
Its binding signal is 33500 fluorescence intensity (a.u.).

“GGTGCCAATCATCTCCGGCGGCACGGCACTGCAGATAGCGCGGAGTCACCTAGTGCAG” was tested. Which binding signal did it give?
The binding signal was 11100 fluorescence intensity (a.u.).

Which binding signal does the source give for “ATATGATAATAATTATTTAAAGAAATAAATTTATTTTGGACGGAGTCACCTAGTGCAG” here?
Its binding signal is 28700 fluorescence intensity (a.u.).

“ATATGAATAGAAATTTTGCATGATTGCAATCCTACAGATTCGGAGTCACCTAGTGCAG” was tested. Which binding signal did it give?
The binding signal was 15300 fluorescence intensity (a.u.).

“CCCCTATGATAGATCCGCTGCTGATTCGGCTGGGAATAAGCGGAGTCACCTAGTGCAG” was tested. Which binding signal did it give?
Its binding signal is 4780 fluorescence intensity (a.u.).

Which binding signal does the source give for “ATTTTGACTGGTTGGCTGGTTGCGATCAAGTTGTGAGATCCGGAGTCACCTAGTGCAG” here?
Its binding signal is 15400 fluorescence intensity (a.u.).

How did the binding signal turn out when “CATCTATGATTGCCTTATGAACGTACATACATACGCACACCGGAGTCACCTAGTGCAG” was run?
The binding signal was 36600 fluorescence intensity (a.u.).

How did the binding signal turn out when “TCACAATATAATTAAGATTGATTATCCCGCCGATTCATCACGGAGTCACCTAGTGCAG” was run?
The binding signal was 37800 fluorescence intensity (a.u.).

For “TGGTTCGGGCAGGGAGATAATTAGAGAGGAAGAGGATAATCGGAGTCACCTAGTGCAG”, which binding signal is on record?
Its binding signal is 3600 fluorescence intensity (a.u.).

“TTACGTAATTTTAAACCGTAAGATTTATTTCCTAATTCGTCGGAGTCACCTAGTGCAG” was tested. Which binding signal did it give?
The binding signal was 11500 fluorescence intensity (a.u.).

For “GGGATCCAATCAATTTCAATTGAATTGTAGAAGTAGTGGTCGGAGTCACCTAGTGCAG”, which binding signal is on record?
Its binding signal is 30700 fluorescence intensity (a.u.).

How did the binding signal turn out when “TAAACTGATCATAAATTCCACTCAAATCAACAGCATTTGACGGAGTCACCTAGTGCAG” was run?
The binding signal was 8880 fluorescence intensity (a.u.).

Which binding signal does the source give for “CATTTTAAATTGCGATAGCAAGATCACAAATTTCTCAGCGCGGAGTCACCTAGTGCAG” here?
Its binding signal is 7180 fluorescence intensity (a.u.).

“CTTGATGGAACAACCACGTTATCTCATGGGTGAATCCATTCGGAGTCACCTAGTGCAG” was tested. Which binding signal did it give?
The binding signal was 22600 fluorescence intensity (a.u.).

With “ATAAAACAAATTACAAAATCCGCCTGTAAACCGCGAGACGCGGAGTCACCTAGTGCAG” as the sequence, how does the binding signal read?
The binding signal was 3460 fluorescence intensity (a.u.).

How did the binding signal turn out when “ATAAATTGCACCATCATCTCTCGCTTCTTGTCTTCGCAACCGGAGTCACCTAGTGCAG” was run?
Its binding signal is 16200 fluorescence intensity (a.u.).

With “GCTTGATTTTCAGAGGGACCTTGCTCCCCTAAATTTCCTGCGGAGTCACCTAGTGCAG” as the sequence, how does the binding signal read?
Its binding signal is 6480 fluorescence intensity (a.u.).

“TTAAGTGAGGAGTGATTAATTGCAGTTGATATGGGGCACACGGAGTCACCTAGTGCAG” was tested. Which binding signal did it give?
The binding signal was 13300 fluorescence intensity (a.u.).

With “AGGTAAGATTGGTTGCACTCAACCTCGTCGTGTGGCTGCACGGAGTCACCTAGTGCAG” as the sequence, how does the binding signal read?
Its binding signal is 8530 fluorescence intensity (a.u.).

For “TTGTGATTTGTTAGAATTGTATTTTACAATGTGTAGTATGCGGAGTCACCTAGTGCAG”, which binding signal is on record?
The binding signal was 39800 fluorescence intensity (a.u.).

“CCCAAAACAAAATTATAGTTAAACTGTTAAAGTAAAGCAACGGAGTCACCTAGTGCAG” was tested. Which binding signal did it give?
Its binding signal is 7660 fluorescence intensity (a.u.).

How did the binding signal turn out when “TATGACTGGTTGATTCAACTTTCAAACAAAGCTTACAAAACGGAGTCACCTAGTGCAG” was run?
Its binding signal is 6790 fluorescence intensity (a.u.).

With “AACCAATTCAAGTTAATATTGATTGGCTACACGCATATAGCGGAGTCACCTAGTGCAG” as the sequence, how does the binding signal read?
Its binding signal is 47800 fluorescence intensity (a.u.).

With “GGGTAATCACGATCAATCCCCTCTCAGATCTATCGCCTTCCGGAGTCACCTAGTGCAG” as the sequence, how does the binding signal read?
Its binding signal is 6210 fluorescence intensity (a.u.).

For “AAAGTTAAATCAATTTATCCAAGTGAAATGTTGGGAGAATCGGAGTCACCTAGTGCAG”, which binding signal is on record?
The binding signal was 10300 fluorescence intensity (a.u.).

How did the binding signal turn out when “CCATCTAATTTTGTCCCATCCCATGCAGCGGTTGAACGGGCGGAGTCACCTAGTGCAG” was run?
The binding signal was 7690 fluorescence intensity (a.u.).

Which binding signal does the source give for “ATTGATTGGCTTATTTGGCTTATTTAACTTGATAAGGATTCGGAGTCACCTAGTGCAG” here?
Its binding signal is 51700 fluorescence intensity (a.u.).

With “ATGTGATTAATTAAAGTTTTAATTATTACAAACTTCAAAACGGAGTCACCTAGTGCAG” as the sequence, how does the binding signal read?
Its binding signal is 27700 fluorescence intensity (a.u.).

With “AACGTGGAAGTGGATTGGGTGGTGGGTGGGGATCCACCTACGGAGTCACCTAGTGCAG” as the sequence, how does the binding signal read?
The binding signal was 6280 fluorescence intensity (a.u.).

“TTATAGACGTAATGGATTACCACACAGGTCCTCAAGCCACCGGAGTCACCTAGTGCAG” was tested. Which binding signal did it give?
Its binding signal is 4190 fluorescence intensity (a.u.).

“TATCCTTTGACTGTTTAATTTTGACTACAATTCCAAGTTGCGGAGTCACCTAGTGCAG” was tested. Which binding signal did it give?
The binding signal was 10700 fluorescence intensity (a.u.).

“AGCACCAATCAGAGTGTGATCCCAAGAAAGCAGAGGAGCACGGAGTCACCTAGTGCAG” was tested. Which binding signal did it give?
The binding signal was 4510 fluorescence intensity (a.u.).

“CATTGATAATGTATAAATAATTTTGGTTACAACATATTTACGGAGTCACCTAGTGCAG” was tested. Which binding signal did it give?
The binding signal was 6880 fluorescence intensity (a.u.).

“CCCACGCATTACATGATAAATTAGAGCTATGAAAATCAAGCGGAGTCACCTAGTGCAG” was tested. Which binding signal did it give?
Its binding signal is 3640 fluorescence intensity (a.u.).

“GATTCAGATTGAATTCACATCACCAATAATAATAATAATACGGAGTCACCTAGTGCAG” was tested. Which binding signal did it give?
The binding signal was 3260 fluorescence intensity (a.u.).

For “TACAAATTGGTTGAAAATGGAGGGTTCAAGCCAATGCATCCGGAGTCACCTAGTGCAG”, which binding signal is on record?
The binding signal was 23600 fluorescence intensity (a.u.).

“ATAATTAGCACTGACAGTAATTACATACTCAATTCAATCACGGAGTCACCTAGTGCAG” was tested. Which binding signal did it give?
Its binding signal is 30500 fluorescence intensity (a.u.).

Which binding signal does the source give for “GTTCTCAATACAAATTGCAATTTCATGACATATATATAAACGGAGTCACCTAGTGCAG” here?
The binding signal was 4410 fluorescence intensity (a.u.).
